# Results taken from PubChem BioAssay AID1347417 (National Center for Advancing Translational Sciences (NCATS), 2020).
# “And” between values parts separate entries of the source, which are not always exact repeats. Identical values can stand only once. The whole screen tested about 120,000 compounds, of which about 5,300 (4.4%) were called active. The inconclusive results got no clear call from the source; some entries with a clear call stand among them for comparison. The call rests on the fitted dose curve; in most records, active means well fitted inhibition curve with a large enough effect; inconclusive means small, poorly fitted or top-dose-only effect; inactive means no such curve, though single readings can be large or run the other way. Potencies of inconclusive entries are doubtful fits and often do not repeat.
# Test: qHTS Primary assay for Inhibitors of Plasmodium falciparum Dd2 growth in vitro; further: nearly all actives have a fitted effect of over 65% in size
# Details: P. falciparum Dd2 growth, SYBR Green, 72 h; series mostly up to 28.9 µM
# How it was run: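 Readout: SYBR Green fluorescence, 485 nm excitation, 535 nm emission, after ~16 h lysis at 37C. Before that, Dd2-infected red cells (2.5% hematocrit) grew 72 h with compound, 29 uM top final concentration.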
# Potency means the concentration at half of the fitted maximal effect; tags describe the fitted curve by direction and shape.
row,Compound,Potency
1,COc1cc(CNC(=O)c2ccc3c(c2)N(C)C2CCCN2C3=O)cc(OC)c1 (stereo unspecified),"inconclusive: 10 µM [inhibitor, single point]"
2,COc1ccccc1N1CCN(C[C@H]2CN3CC[C@H]2C[C@@H]3CNC(=O)Nc2cccc(C#N)c2)CC1,"inconclusive: 12.6 µM [inhibitor, partial curve, poor fit]"
3,C[C@@H]1CN(C(=O)c2cnn(C)c2)CC[C@@]1(O)C1CCOCC1,inactive
4,COc1cccc(C(=O)N2CCC(N3C[C@H](O)C[C@H]3C(=O)Nc3ccccc3OC)CC2)c1,"inconclusive: 12.6 µM [inhibitor, partial curve, poor fit]"
5,COc1ccc(C(=O)N2[C@H]3CC[C@@H]2c2cnc(C)nc2C3)cc1OC,inactive
6,Cc1ccc2[nH]cc(C(c3ccccc3)c3ccc(Cl)s3)c2c1 (stereo unspecified),"inconclusive: 10 µM [inhibitor, single point]"
7,N#Cc1ccc(CC(=O)N2CC(CNc3cccnc3)C3(C2)CN(c2ccccc2)C3)cc1 (stereo unspecified),inactive
8,Cc1cccc2sc(N(Cc3cccnc3)C(=O)c3ccco3)nc12,"inconclusive: 14.1 µM [inhibitor, single point]"
9,Cc1ccc(S(=O)(=O)N2CCCN(C)c3ccccc32)c(C)c1,"inconclusive: 17.8 µM [inhibitor, single point]"
10,CCC1CN(Cc2cn(-c3ccccc3)nc2-c2ccc(OC)cc2F)CCO1 (stereo unspecified),"inconclusive: 11.2 µM [inhibitor, single point]"
11,COc1cc(CNC(=O)c2cc3cn(C(C)C)cc3s2)cc(OC)c1,active: 12.6 µM
12,CC(C)c1cccc(NC(=O)C2CCN(C(=O)c3ncn4c3COC(c3ccccc3)C4)CC2)c1 (stereo unspecified),"inconclusive: 0.282 µM [inhibitor, full curve, poor fit]"
13,CCn1nccc1C(=O)N1CCCC(c2nn[nH]n2)C1 (stereo unspecified),inactive
14,Cc1ccc2nc(-c3ccc(C)s3)c(Nc3ccc4c(c3)OCCO4)n2c1,inactive
15,COc1ncccc1CN1CCC2(CC1)OC(=O)N(Cc1ccccc1C#N)C2(C)c1ccccc1 (stereo unspecified),active: 4.47 µM
16,O=C(Cc1ccccn1)N1CCC(N2CCCNC2=O)CC1,inactive
17,CCOC(=O)c1c(C)[nH]c(C)c1S(=O)(=O)N1CCCC(C(=O)N2CCN(c3cccc(Cl)c3)CC2)C1 (stereo unspecified),"inconclusive: 11.2 µM [inhibitor, partial curve, poor fit]"
18,Cc1oc(C(O)c2cccc(O)c2)nc1C(=O)Nc1ccccc1 (stereo unspecified),"inconclusive: 5.62 µM [inhibitor, single point]"
19,Cc1ccc(Cl)cc1-n1c(SCC(=O)NCc2ccccc2)nc2n[nH]c(C)c2c1=N,"inconclusive: 7.94 µM [inhibitor, partial curve]"
20,Cc1cc(-c2nc3ccncc3[nH]2)c(C)[nH]1,"active: 20 µM and inconclusive: 3.16 µM [inhibitor, single point]"
21,CCC(=O)N1CCC2(CC1)NCCc1c2[nH]c2ccccc12,"inconclusive: 17.8 µM [inhibitor, single point]"
22,COc1ccc(F)c(CN2CCCN3CCC[C@H]3C2)c1Cl,active: 12.6 µM

row,Compound,Potency
1,COCCNC(=O)[C@@H]1C[C@H](Oc2cccnc2)CN1C(=O)c1ocnc1C,inactive
2,N#Cc1ccc(C(=O)N2CCC(c3n[nH]c(=O)n3-c3ccccc3)CC2)cc1,"inconclusive: 3.98 µM [inhibitor, single point]"
3,Oc1ccc(NCc2ccccc2OCc2ccccc2)cc1,"inconclusive: 17.8 µM [inhibitor, single point]"
4,O=C(c1cccc(Cl)c1)N1CC(CNc2cccnc2)C2(C1)CN(c1ccccc1)C2 (stereo unspecified),active: 12.6 µM
5,O=C(COc1ccccc1)NC1CCCc2c1[nH]c1ccc(F)cc21 (stereo unspecified),"inconclusive: 11.2 µM [inhibitor, single point]"
6,O=C(NC[C@H]1OC[C@@H](N(Cc2cccs2)Cc2cccs2)[C@@H]1O)c1ccccc1,"inconclusive: 10 µM [inhibitor, partial curve]"
7,COc1ccc(CNC(=O)c2ccc3c(c2)N(C(=O)c2ccc(F)cc2)CC3)c(OC)c1,"inconclusive: 1.41 µM [inhibitor, partial curve, poor fit]"
8,Cn1nccc1-c1ccc2ncn(-c3ccccc3)c(=O)c2n1,"inconclusive: 5.62 µM [inhibitor, partial curve]"
9,Cc1cc(N2CCC(N3CCCC(C(=O)NCCc4ccccc4)C3)CC2)ncn1 (stereo unspecified),inactive
10,CN1C(=O)c2ccccc2Sc2ccc(NC(=O)N3CCN(c4ccc(F)cc4)CC3)cc21,active: 7.94 µM
11,COCCN(CC1CCN(Cc2ccccc2F)CC1)C(=O)C1CCCCO1 (stereo unspecified),inactive
12,CN1Cc2cccn2CC1CNC(=O)c1ccnn1C (stereo unspecified),"inconclusive: 10 µM [inhibitor, single point]"
13,CCc1cccc(C)c1NC(=O)CSc1n[nH]c(-c2ccccc2)n1,"inconclusive: 3.98 µM [inhibitor, single point]"
14,CC(=O)N1CCC(N2C[C@H](O)C[C@H]2c2nc(-c3ccc4c(c3)OCO4)no2)CC1,"inconclusive: 12.6 µM [inhibitor, partial curve, poor fit]"
15,CCN1CCN(CCNC(=O)c2ccc(N3CC4CC(C3)[C@H]3CCCC(=O)N3C4)nc2)CC1 (stereo partly specified),inactive
16,Cc1ccc(C)c(NC(=O)N2CCC(Oc3ncccc3C(=O)N3CCCCC3)C2)c1 (stereo unspecified),"inconclusive: 2.82 µM [inhibitor, full curve, poor fit]"
17,COc1cc(NC(=O)Cn2c(C)cc3nc4n(c(=O)c32)CCCC4)cc(OC)c1,"inconclusive: 1.12 µM [inhibitor, partial curve, poor fit]"
18,COCCNC(=O)CCC[C@@H]1[C@H]2CCCN3CCC[C@@H](CN1C)[C@@H]23,inactive
19,CCOC(=O)c1ccc(NC(=O)C2=C(C)C(=O)OC23CCN(C(C)=O)CC3)cc1,"inconclusive: 20 µM [inhibitor, single point]"
20,Cc1ccc(Cl)cc1NC(=O)CCn1cnc2ccccc2c1=O,"inconclusive: 0.0794 µM [inhibitor, full curve, poor fit]"
21,Cc1ccc(CN2C(=O)OC(c3cccc(NC(=O)c4cccs4)c3)C2C(=O)NCC(C)C)cc1 (stereo unspecified),inactive
22,O=C1NCCCCCCN(S(=O)(=O)c2cccc(F)c2)[C@H]2CCCC[C@@H]12,inactive

row,Compound,Potency
1,Cn1cccc1C(=O)N1CCC(N2C(=O)C3(CCCC3)C2c2ccccc2)CC1 (stereo unspecified),"inconclusive: 10 µM [inhibitor, single point]"
2,Cc1ccc(-c2ccc(CN)cc2)cc1Cl,"inconclusive: 14.1 µM [inhibitor, single point]"
3,O=C(c1ccc2c(c1)OCO2)N1CCN(c2cc(-c3ccc(F)cc3)[nH]n2)CC1,inactive
4,O=C(CCC1CCCN(Cc2cc3ccccc3s2)C1)Nc1ccccc1F (stereo unspecified),"inconclusive: 17.8 µM [inhibitor, single point]"
5,COc1ccccc1N1CCN(C(=O)Cn2c(=O)nc(-c3ccccc3)c3ccccc32)CC1,active: 11.2 µM
6,O[C@H]1CC[C@@H](Cc2cc(-c3ccc(F)cc3)on2)O[C@@H]1CNCc1ccccn1,"inconclusive: 5.62 µM [inhibitor, single point]"
7,Cc1ccc2cc(CCC(=O)N3CCN(c4ccccn4)CC3)c(=O)[nH]c2c1,"inconclusive: 6.31 µM [inhibitor, partial curve, poor fit]"
8,Cc1ccc(C2=NC3(CCN(C(=O)COc4ccc(Cl)cc4)CC3)ON2)cc1,"inconclusive: 3.98 µM [inhibitor, single point]"
9,O=C(N[C@@H]1CN(Cc2ccc(F)cc2)C[C@H]1CO)c1cccnc1,"inconclusive: 3.98 µM [inhibitor, single point]"
10,CC(C)S(=O)(=O)N1CCC(N2C(=O)C3(CCCC3)C2c2ccccc2)CC1 (stereo unspecified),"inconclusive: 6.31 µM [inhibitor, partial curve, poor fit]"
11,CCCn1c(C)cnc1CC1CCN(C(=O)CC2CCCC2)C1 (stereo unspecified),"inconclusive: 10 µM [inhibitor, single point]"
12,COc1ccccc1N1CCN(C(=O)c2ccc3c(c2)N(Cc2cc(C)ccc2C)C(=O)c2ccccc2S3(=O)=O)CC1,"inconclusive: 1.12 µM [inhibitor, full curve]"
13,CCOC(=O)N1CCc2c(sc(NCc3cccs3)c2C(=O)Nc2cc(Cl)ccc2OC)C1,active: 8.91 µM
14,CN(C)c1cccc(C(=O)N2CCC3(CC2)NC(=O)N(Cc2ccccc2)C3=O)c1,"inconclusive: 17.8 µM [inhibitor, single point]"
15,Cc1ncncc1C(=O)N1CC[C@@](O)(C2CCOCC2)[C@H](C)C1,inactive
16,CSc1cccc(NC(=O)NC[C@H]2C[C@@H]3CCN2C[C@@H]3CN2CCN(c3ccccc3)CC2)c1,"inconclusive: 10 µM [inhibitor, single point]"
17,CCOc1ccc(C2NC(=O)N(CC(=O)NC3CCCC3)C3=C2C(=O)OC3)cc1 (stereo unspecified),inactive
18,CCOC(=O)c1c(NC(=O)c2ccc(S(=O)(=O)N(CC(C)C)CC(C)C)cc2)sc2c1CCN(CC)C2,"inconclusive: 10 µM [inhibitor, single point]"
19,Cc1ccc(C(=O)N2C(C(=O)N3CCOCC3)COC23CCN(C(=O)c2ccc(F)cc2)CC3)cc1 (stereo unspecified),inactive
20,Cc1ccc(CCN2CCCC23Cc2ccccc2CNC3=O)cc1 (stereo unspecified),"inconclusive: 10 µM [inhibitor, single point]"
21,NC(=O)CN1CCCC(C(=O)N2CCC(O)(c3cccnc3)CC2)C1 (stereo unspecified),inactive
22,Cn1nc(C2CCN(c3cncc(C(N)=O)n3)CC2)n(-c2ccccc2)c1=O,inactive
